Experimental data: PubChem BioAssay AID1346428 (National Center for Advancing Translational Sciences (NCATS), 2018)
The campaign covered roughly 48,000 compounds. About 1,200 (2.5%) were called active. Inconclusive results (about 2%) are left out.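 Rule for the calls: active = activation of at least 60% and not above a set upper limit (about 1 call in 100 departs from these limits); inconclusive = activation of 40% to 60%, or above that upper limit; inactive = activation under 40%.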 The list shows a part of the results.

biological target: Probable G-protein coupled receptor 32 (Homo sapiens) (UniProt O75388); assay: qHTS for Agonists of Human Resolvin D1 Receptor DRV1; details: CHO-K1 GPR32 beta-arrestin PathHunter luminescence, 90 min; at 76.9 µM; hits give high values; zero percent set by DMSO-only wells; note: 0% is about no effect
Procedure, shortened: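 PathHunter enzyme-fragment complementation, CHO-K1 GPR32 stable line; 2,500 cells/well, overnight attach; cpd 90 min 37 °C 5% CO2; detection reagent 1 h RT; chemiluminescence. DMSO = EC0.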

Chain of UniProt O75388 (O75388 whole entry, looked up, the tested form may be a part): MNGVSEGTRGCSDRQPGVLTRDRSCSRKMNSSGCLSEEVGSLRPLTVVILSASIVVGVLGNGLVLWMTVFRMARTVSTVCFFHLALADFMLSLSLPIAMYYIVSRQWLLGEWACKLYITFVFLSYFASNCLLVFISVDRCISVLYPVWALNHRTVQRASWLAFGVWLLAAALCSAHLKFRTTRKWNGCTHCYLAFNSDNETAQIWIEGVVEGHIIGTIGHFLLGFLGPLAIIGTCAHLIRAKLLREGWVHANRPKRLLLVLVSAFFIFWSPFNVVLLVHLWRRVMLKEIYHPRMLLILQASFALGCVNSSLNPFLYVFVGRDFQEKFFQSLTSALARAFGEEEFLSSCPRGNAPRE

SMILES	activation
CCn1cc(C(=O)NCCc2ccc(C)cc2)c(=O)c2cc(S(=O)(=O)N3CCC(C)CC3)ccc21	inactive: -19.8%
CCCOc1ccc(OC(=O)c2cn(-c3ccc(OC)cc3)c(=O)c3ccccc23)cc1	inactive: -8.95%
COc1cc(NC(=O)c2nc3ccccc3n(C)c2=O)cc(OC)c1OC	inactive: 12.8%
CCOc1ccccc1NC(=O)C1=C(C)Nc2ncnn2C1c1cccs1 (stereo unspecified)	inactive: 17.8%
Cc1cccc(N2CCN(C(=O)c3ccc4c(Cl)c5c(nc4c3)CCCC5)CC2)c1C	inactive: -21.8%
COc1cccc(-c2nn3c(=O)cc(CN4CCN(C(=O)/C=C/c5ccccc5)CC4)nc3s2)c1	inactive: 46.4%
COc1ccc(NC(=O)Cn2nc(C(F)(F)F)c3c2CCCC3)cc1OC	inactive: 28.5%
CC(=O)c1cccc(NC(=O)c2cc(C)nc3c2c(C)nn3-c2cccc(Cl)c2C)c1	inactive: -6.14%
O=C(OCc1cc(=O)n2nc(C3CC3)sc2n1)c1ccccc1Cl	inactive: -46.3%
COc1ccc(CNC(=O)C2=CC(c3cccc(OC)c3)=NS(=O)(=O)N2C)cc1	inactive: -24.5%
Cc1ccc(CCNC(=O)CCS(=O)(=O)c2cc3c(cc2Cl)NC(=O)CO3)cc1	inactive: 3.71%
CC(C)NC(=O)CN1C(=O)c2cccnc2Sc2ccccc21	inactive: -14.1%
Cc1ccc(-c2nc(-c3cc4cccc(OCc5ccccc5F)c4oc3=O)no2)cc1	inactive: -1.66%
COC(=O)c1c(-c2ccc(Cl)cc2)noc1N1CCN(c2ccc(F)cc2)CC1	inactive: -14.6%
CC(C)c1cc(C(=O)NCc2ccccc2)no1	inactive: -2.86%
CCOc1ccc(CNC(=O)CCS(=O)(=O)c2ccc3c(c2)oc(=O)n3C)cc1	inactive: 11.1%
COc1ccc(NC(=O)c2csnn2)cc1	inactive: 3.1%
Cc1ccc(NC(=O)Cn2c(=O)n(Cc3ccc(C(=O)NCc4ccc5c(c4)OCO5)cc3)c(=O)c3ccccc32)cc1	inactive: 19.9%
O=S(=O)(Nc1ccc(C(F)(F)F)cc1)c1ccc2c(c1)OCCO2	inactive: 13%
COc1ccccc1N1CCN(Cc2nnc(-c3ccccc3C)o2)CC1	inactive: -7.15%
COCCCn1c(=O)c2sccc2n2c(CCCC(=O)Nc3cccc(C(F)(F)F)c3)nnc12	inactive: -13.2%
O=C(c1ccc2c(c1)N(Cc1ccc(Cl)cc1)C(=O)c1ccccc1S2=O)N1CCC(Cc2ccccc2)CC1 (stereo unspecified)	inactive: -1.17%

SMILES	activation
O=C(NCCCc1nc2ccccc2n1Cc1cccc(Cl)c1)C1CCCCC1	inactive: -25.7%
CCOC(=O)c1cccc(NC(=O)c2ccc3nc(CCc4ccccc4)oc3c2)c1	inactive: -13.3%
O=C(O)C1=CCNCC1	inactive: -2.62%
CCCCOC(=O)c1ccc(NC(=O)c2csnn2)cc1	inactive: 11.9%
CC1=C(C(=O)Nc2ccccc2)C(c2ccc[nH]2)n2ncnc2N1 (stereo unspecified)	inactive: -18.2%
COc1ccc(CNC(=O)c2cccc(NC(=O)N3CCSc4ncccc43)c2)cc1	inactive: -0.241%
Cc1ccc(Cl)cc1N1C(=O)N(Cc2ccc(C#N)cc2)c2ccccc2S1(=O)=O	inactive: 27%
COc1ccc(C2=Nc3ccc(C)cc3NC(c3ccc(Cl)cc3)=N2)cc1	inactive: -1.87%
COc1ccc(Cl)cc1NC(=O)CCCn1c(C)c2cnn(-c3ccccc3)c(=O)c2c1C	inactive: -24.7%
COc1ccc(-c2noc(N3CCC(C(=O)Nc4ccc(C)c(F)c4)CC3)n2)cc1OC	inactive: -6.58%
COc1cccc(Cn2c(=O)n(-c3ccc(Br)cc3F)c(=O)c3sc4ccccc4c32)c1	inactive: 26.6%
COc1ccc(NC(=O)CCNS(=O)(=O)c2cccc3nsnc23)cc1OC	inactive: 2.57%
COc1ccc(N(Cc2ccccc2)C(=O)c2nc(SC)ncc2Cl)cc1	inactive: -11.1%
Cc1ccc(NC(=O)CC2Nc3cccc4cccc(c34)NC2=O)cc1 (stereo unspecified)	inactive: -9.67%
CCOc1cccc2cc(-c3nc4sc5c(c4c(=O)[nH]3)CCC(C)C5)c(=O)oc12 (stereo unspecified)	inactive: -12.6%
CCCCNC(=O)CSc1nc2ccccc2nc1Cc1ccc(Cl)cc1	inactive: -4.97%
CCCOc1cccc(C(=O)N(Cc2cc(OC)c(OC)c(OC)c2)C2CCS(=O)(=O)C2)c1 (stereo unspecified)	inactive: -8.67%
CN=C(N)NCCC[C@H](N)C(=O)O	inactive: -3.87%
Cc1ccc(OCCn2nnc3sc4c(c3c2=O)CCC(C(C)(C)C)C4)cc1 (stereo unspecified)	inactive: 18.3%
CC(C)c1ccc(NC(=O)c2cccn2-c2nnc(N3CCCCC3)s2)cc1	inactive: -24.7%
CCn1c(CN2CCC(C)CC2)nc2cc(NC(=O)COc3ccc([N+](=O)[O-])cc3)ccc21	inactive: -3.54%
O=C(NCCc1ccccc1)c1c[nH]c2ccc(S(=O)(=O)Nc3ccccc3F)cc2c1=O	inactive: 15.2%

SMILES	activation
COc1cc(C(=O)Nc2ccc(OCc3cc(=O)n4cc(C)sc4n3)cc2)cc(OC)c1OC	inactive: -3.62%
COc1ccc(NC(=O)Nc2nnc(N(C)C3CCCCC3)s2)c(OC)c1	inactive: -1.61%
O=C(Nc1ccc(O)c(-c2nc3ccccc3o2)c1)c1ccco1	active: 84.1%
CCOC(=O)c1sc(NC(=O)COc2ccccc2Cl)c(C(=O)OCC)c1C	inactive: -2.16%
CC1CCN(C(=O)c2cc(-c3ccc(Cl)cc3)on2)CC1	inactive: 12.9%
CC1=C(C(=O)OCC2CCCCC2)C(c2c(F)cccc2Cl)CC(=O)N1 (stereo unspecified)	inactive: -1.82%
CCCCCCCCCCC(C)(C)C(=O)Nc1c(OC)cc(OC)cc1OC	inactive: -21.6%
COCCNC(=O)c1cc(Sc2ccc(F)cc2F)nc2ccccc12	inactive: -5.33%
COc1ccc(CCNC(=O)CCc2c(C)nc3nc(C)nn3c2C)cc1OC	inactive: -8.54%
COc1ccc(C)cc1NC(=O)CCS(=O)(=O)c1ccc2c(c1)CC(=O)N2C	inactive: 6.73%
CCc1ccc(S(=O)(=O)c2nnn3c2nc(NC2CCCC2)c2sccc23)cc1	inactive: -19.3%
COc1cc(OC)c(NC(=O)Nc2ccccc2OCc2cc(=O)n3cc(C)ccc3n2)cc1Cl	inactive: -12.9%
CC(=O)N1c2nc(-c3ccco3)nn2C2(CCCCC2)[C@@H]2CCCC[C@@H]21	inactive: -4.32%
COc1ccc(NC(=O)CN(C)S(=O)(=O)c2ccc3[nH]c4c(c3c2)CCCC4)cc1Cl	active: 90.6%
O=C(CSc1ccc2ccccc2n1)Nc1nsc(-c2ccc(Cl)cc2)n1	inactive: 7.68%
COc1ccc(-n2ccn(Cc3ccc(C)cc3)c(=O)c2=O)cc1OC	inactive: -18.4%
O=C(c1ccc2c(c1)N(Cc1ccc(F)cc1)C(=O)c1ccccc1S2(=O)=O)N1CCC(Cc2ccccc2)CC1	inactive: -0.983%
Cc1cccc(-n2c(=O)c3c(c4cc(C)ccc4n3C)n(Cc3ccccc3F)c2=O)c1	inactive: 13.4%
COc1ccc(Cn2c(SCc3ccc(C(=O)NCc4ccccc4F)cc3)nc3cccnc32)cc1	inactive: 12.3%
Cc1cc(F)ccc1NC(=O)c1sc2nc(-c3cccs3)ccc2c1N	active: 67%
Cc1nn(C)c2c1c(C(F)(F)F)cc(=O)n2CC(=O)NCc1ccccc1Cl	inactive: 7.66%
Cc1ccc(CC(=O)Nc2c(C(=O)N3CCN(c4ccccc4F)CC3)oc3ccccc23)cc1	inactive: -28.8%

SMILES	activation
CCOc1ccccc1NC(=O)C(C)Sc1nc2c(c(=O)[nH]1)CCCC2 (stereo unspecified)	inactive: 15.5%
CCc1cccc(CC)c1NC1=NS(=O)(=O)c2ccccc21	inactive: -10.2%
COc1ccc(-c2cc(C(=O)Nc3c(C)nn(Cc4ccc(F)cc4)c3C)no2)cc1OC	inactive: 15.4%
Cc1ccc(NCc2nnc3n2CCCCC3)cc1Cl	inactive: -7.59%
CCOCCCNC(=O)CCc1nnc2ccc(N3CCN(c4cccc(OC)c4)CC3)nn12	inactive: 2.68%
CCOC(=O)c1ccccc1NC(=O)CCc1c(C)nc2ncnn2c1C	inactive: -1.26%
CCOC(=O)C1=C(CN2CCC(C(=O)OCC)CC2)NC(=O)NC1c1ccc(Cl)cc1 (stereo unspecified)	inactive: -11%
Cc1ccc2c(=O)cc(C(=O)Nc3nnc(C)s3)oc2c1	inactive: -9.68%
CCn1nc(-c2ccccc2)c(-c2ccccc2)c(C(=O)OCCOC)c1=O	inactive: -14.1%
CN1C(C(=O)Nc2ccc(F)cc2F)=CC(c2cccs2)=NS1(=O)=O	inactive: 1.39%
CC#CCOC(=O)c1c(C)nc2sc3c(c2c1N)CCC(O)C3 (stereo unspecified)	inactive: 3.33%
Cc1ccc(Nc2c(-c3ccccc3O)nc3ccc(Br)cn23)cc1	inactive: -7.38%
CC(C)N(C(=O)Cn1cc(S(=O)(=O)Cc2ccc(C(F)(F)F)cc2)c2ccccc21)C(C)C	inactive: -15.7%
CCOc1ccc(S(=O)(=O)N2CCN(c3ccccc3)CC2)cc1C(N)=O	inactive: -5.45%
Cc1ccc(CN(C(=O)COc2ccc(C)c(C)c2)C2CCS(=O)(=O)C2)o1 (stereo unspecified)	inactive: -20.8%
CN1CCc2cccc3c2C1Cc1ccc(O)c(O)c1-3 (stereo unspecified)	inactive: 15.1%
Cc1cccc(NC(=O)CSc2nc3c([nH]c4ccccc43)c(=O)n2C)c1	inactive: -13.6%
COc1ccc2c(Sc3ccc(Cl)cc3)c(C(=O)NCCCN3CCCCC3)[nH]c2c1	inactive: -21.6%
CCOc1ccc(-n2c(=O)c3c(C)c(C(=O)N(C)C)sc3n(CC(=O)Nc3c(C)cc(C)cc3C)c2=O)cc1	inactive: -14%
CC(N)(C(=O)O)c1ccc(C(=O)O)cc1 (stereo unspecified)	inactive: -3%
